# Source: the supplement of paper PMC12217912
# The list shows a part of the results. Sequences were assembled here from the parent chain. Inactive controls read about 0.05.
# B1: TEV protease; numbered along this chain (parent)
# chain: MGESLFKGPRDYNPISSSICHLTNESDGHTTSLYGIGFGPFIITNKHLFRRNNGTLVVQSLHGVFKVKDTTTLQQHLVDGRDMIIIRMPKDFPPFPQKLKFREPQREERICLVTTNFQTKSMSSMVSDTSCTFPSGDGIFWKHWIQTKDGQCGSPLVSTRDGFIVGIHSASNFTNTNNYFTSVPKNFMELLTNQEAQQWVSGWRLNADSVLWGGHKVFMVKPEEPFQPVKEATQL
# Variants of: B1
# Assay: raw area under fraction-flipped curve 0-4 h after induction (AUC4h, not background-subtracted), DNA-recorder readout of cleavage of the substrate (dimensionless); higher = more cleavage of the substrate by the protease variant
# Details: temperature: 34 °C; time window: 0-4 h after rhamnose induction
# 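Further: Bxb1 expression induced with 0.2% (w/v) L-rhamnose at OD600 near 0.5, cultures sampled hourly, flipped fraction per protease–substrate barcode pair counted by paired-end Illumina sequencing.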
Variant,area with substrate ENLYFQS,area with substrate ENLYFQT,area with substrate ENLYFQN,area with substrate ENLYFQV,area with substrate ENLYFQY,area with substrate ENLYFQR,area with substrate ENLYFQW
A196C,0.0964,0.0802,–,–,–,–,–
F163G,0.115,–,0.123,0.0593,0.0681,–,–
N193V,0.0994,–,–,–,–,–,–
P9T,0.0954,–,–,–,0.1,0.0623,0.0725
Q97V,0.0931,–,–,–,–,–,–
